Where “and” joins values, the source holds several entries; their conditions need not be identical. Identical values can stand only once. The list shows a part of the results. Repeats are few or missing, and single values can be far off.
Each molecule was assayed on SARS-CoV-2 nsp3 SARS-unique domain core (SUD-core, nsp3 residues 413-676) (assay: dissociation rate constant koff (BLI); higher = faster dissociation). Conditions: 100 µM; 25 °C.
Method: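 Primary BLI (Octet RED96e) screen of MedChemExpress Nucleotide Compound and Kinase Inhibitor libraries (1770 compounds) against biotinylated SARS-CoV-2 SUD-core on SSA biosensors. Each compound was tested once at 100 uM in PBS pH 7.4, 1% DMSO; 150 s association, 180 s dissociation, 25 C. Kd and koff are apparent values from single-concentration 1:1 fits. Only fits with full R^2 >= 0.9 are kept; fits at the software floor (<1e-12 M, <1e-7 /s) and placeholder values are excluded.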

Structure (SMILES) | dissociation rate constant koff
COc1ncc(-c2ccc3ncc(Cl)c(=O)n3c2)cc1NS(=O)(=O)c1ccc(F)cc1F | 0.0941 s⁻¹
O=C1c2c(O)cc(O)cc2O[C@H](c2cc(O)c(O)c(O)c2)[C@H]1O | 0.00379 s⁻¹
C=CC(=O)Nc1cc(Nc2nccc(-c3c[nH]c4ccccc34)n2)c(OC)cc1N(C)CCN(C)C | 0.945 s⁻¹
CC(C)n1c(=O)n(C)c2cnc3cc(F)c(-c4ccc(OCCCN5CCCCC5)nc4)cc3c21 | 0.0565 s⁻¹
COc1ccc(C(OC[C@H]2O[C@@H](n3ccc(NC(=O)c4ccccc4)nc3=O)C[C@@H]2OP(OCCC#N)N(C(C)C)C(C)C)(c2ccccc2)c2ccc(OC)cc2)cc1 (stereo not given in full) | 0.173 s⁻¹
Nc1ncnc2c1ccn2[C@@H]1O[C@H](CO)[C@@H](O)[C@H]1O | 0.016 s⁻¹
Cc1cc(N2CCOCC2)cc2[nH]c(-c3c(NC[C@@H](O)c4cccc(Cl)c4)cc[nH]c3=O)nc12 | 0.0993 s⁻¹
C=C(C)[C@H](C)c1cc(/C=C/C(=O)c2ccc(O)cc2)c(OC)cc1O | 0.067 s⁻¹
NCc1ccc(Nc2ncc(F)c(Nc3ccccc3)n2)cc1 | 0.121 s⁻¹
Nc1ncnc2c1ncn2[C@H]1CC[C@@H](CO)O1 | 0.0151 s⁻¹
COc1ccc2nc3ccc(OC)cc3c(SCCCN)c2c1 | 0.062 s⁻¹
Cc1ccc(Oc2ccnc3cc(-c4cnn(C5CCNCC5)c4)ccc23)cc1 | 0.116 s⁻¹
O=C1c2c(O)ccc(O)c2C(=O)c2c(NCCNCCO)ccc(NCCNCCO)c21 | 1.21 s⁻¹ and 0.473 s⁻¹
C[C@@H]1CN(CC(=O)Nc2ccc3c(c2)Cc2cccc(-c4cc(=O)cc(N5CCOCC5)o4)c2S3)C[C@H](C)O1 | 0.477 s⁻¹
CC(C)(C)S(=O)(=O)c1cc2c(Nc3ccc4scnc4c3)ccnc2cc1OCCOCCOCCOCCOCC(=O)Nc1cccc2c1CN(C1CCC(=O)NC1=O)C2=O (stereo not given) | 0.336 s⁻¹
COc1cc(OC)cc(N(CCNC(C)C)c2ccc3ncc(-c4cnn(C)c4)nc3c2)c1 | 0.602 s⁻¹
CN1CCN(c2ccc(C(=O)Nc3n[nH]c4ccc(Cc5cc(F)cc(F)c5)cc34)c(NC3CCOCC3)c2)CC1 | 0.0491 s⁻¹
O=C(O)c1ccc2c(c1)nc(Nc1cccc(Cl)c1)c1ccncc12 | 0.62 s⁻¹
CNC(=O)c1nn(C)c2c1C(C)(C)Cc1cnc(Nc3ccc(N4CCN(C)CC4)cc3)nc1-2 | 0.358 s⁻¹
Nc1ncnc2c1c(-c1cccc(OCc3ccccc3)c1)cn2C1CC(CN2CCCC2)C1 (stereo not given) | 0.479 s⁻¹

Structure (SMILES) | dissociation rate constant koff
COc1ccc(C(OC[C@H]2O[C@@H](n3cnc4c(=O)[nH]cnc43)C[C@@H]2O)(c2ccccc2)c2ccc(OC)cc2)cc1 | 0.0837 s⁻¹
CC(C)=CCC[C@](C)(O[C@@H]1O[C@H](CO[C@@H]2O[C@H](CO)[C@@H](O)[C@H](O)[C@H]2O)[C@@H](O)[C@H](O)[C@H]1O)[C@H]1CC[C@]2(C)[C@@H]1[C@H](O)C[C@@H]1[C@@]3(C)CC[C@H](O[C@@H]4O[C@H](CO)[C@@H](O)[C@H](O)[C@H]4O[C@@H]4O[C@H](CO)[C@@H](O)[C@H](O)[C@H]4O)C(C)(C)[C@@H]3CC[C@]12C | 0.254 s⁻¹
Nc1ncnc2nc[nH]c12 | 0.0406 s⁻¹
COc1c(C)c(C(=O)c2ccc(N)c(C(=O)O)c2)n2ccccc12 | 0.0998 s⁻¹
Cc1ncc(NC(=O)NC2c3ccccc3-c3ccccc32)c(-c2ccccc2)n1 | 0.685 s⁻¹
Oc1cc2c(cc1O)C(Cc1cccc3ccccc13)NCC2 (stereo not given) | 0.148 s⁻¹
CC(C)n1cnc2c(NCc3cccc(C(F)(F)F)c3)ncnc21 | 0.365 s⁻¹
O=C(O[C@@H]1Cc2c(O)cc(O)cc2O[C@@H]1c1cc(O)c(=O)c2c(O)c(O)cc([C@H]3Oc4cc(O)cc(O)c4C[C@H]3OC(=O)c3cc(O)c(O)c(O)c3)c2c1)c1cc(O)c(O)c(O)c1 | 0.00123 s⁻¹
C[C@H](CC[C@@H](O)C(C)(C)O)[C@H]1CC[C@@]2(C)[C@@H]3CC=C4[C@@H](CC[C@H](O)C4(C)C)[C@]3(C)[C@H](O)C[C@]12C | 1.11 s⁻¹
Cn1c(=O)c2[nH]cnc2n(C)c1=O | 0.017 s⁻¹
N#CC(=C(/N)Sc1ccccc1N)/C(C#N)=C(\N)Sc1ccccc1N | 0.776 s⁻¹
O=c1[nH]c2ccccc2n1C1CCN(Cc2ccc(-c3[nH]c4cc5ncnc5cc4nc3-c3ccccc3)cc2)CC1 | 0.0291 s⁻¹
Cc1ccc(C(=O)Nc2cccc(C(F)(F)F)c2)cc1-c1ccc2nc(NCCN3CCOCC3)ncc2c1 | 0.0204 s⁻¹
CCCCNc1ncc(-c2ccc(CN3CCOCC3)cn2)c(NC2CCC(O)CC2)n1 (stereo not given) | 0.0929 s⁻¹
Cn1nccc1Nc1nccc(-c2ccn([C@H](CO)c3ccc(Cl)c(F)c3)c(=O)c2)n1 | 0.255 s⁻¹
O=c1[nH]c(=O)n(C2CCCO2)cc1F (stereo not given) | 0.0124 s⁻¹
N=c1ccn2c(n1)O[C@H]1[C@H](O)[C@@H](CO)O[C@H]12 | 0.0256 s⁻¹
CN1CCN(CCOc2cc(OC3CCOCC3)c3c(Nc4c(Cl)ccc5c4OCO5)ncnc3c2)CC1 | 0.669 s⁻¹
Cc1ccc(NC(=O)Nc2nnc(Sc3ncnc4cc(OCCCN5CCOCC5)ccc34)s2)cc1 | 0.00868 s⁻¹
COc1nccc(-c2c(-c3ccc(F)cc3)ncn2C2CCNCC2)n1 | 0.569 s⁻¹

Source: the supplement of paper PMC10326071
